Source: PMC9179336, “Therapeutic Validation of GEF-H1 Using a De Novo Designed Inhibitor in Models of Retinal Disease” (Cells, 2022)

Tested on: GEF-H1 (GEF-H1-CA, HEK293 cells)
Experiment: αSMA promoter luciferase gene reporter assay, GEF-H1-CA
Conditions: HEK293 co-transfected with GEF-H1-CA; dual luciferase; TAT-F1 4 µM, TAT-P5 20 µM or concentrations indicated; overnight
Excerpt: GEF-H1 regulates αSMA expression and promoter activity in a RhoA-dependent manner. Therefore, we next tested whether the inhibitors can attenuate GEF-H1-induced activation of the αSMA promoter using a luciferase reporter gene assay.

GRKKRRQRRRPWQDYIAEVPRSDYDLRPTGQD [TAT-scr]
GEF-H1-induced αSMA promoter activity: did not affect GEF-H1-induced αSMA promoter activity
